Results from the antibiotic and cytotoxicity screens of Wong et al. (2023).
This is one part of the list.

Assays:
HSkMC = human skeletal muscle cells; experiment: cytotoxicity call (relative viability < 0.9); settings: 10 µM
HepG2 = experiment: cytotoxicity call (relative viability < 0.9); settings: 10 µM
S. aureus RN4220 = experiment: growth inhibition call (relative growth <= 0.2); settings: 50 µM

SMILES	cytotoxicity call (HSkMC)	cytotoxicity call (HepG2)	growth inhibition call (S. aureus RN4220)
C[C@@H]1CCCCO[C@@H](CN(C)Cc2ccc(C(=O)Nc3ccccc3N)cc2)[C@@H](C)CN([C@@H](C)CO)C(=O)c2cc(N(C)C)ccc2O1	inactive	inactive	inactive
CC(C)NC(=O)N(C)C[C@H]1Oc2cc(C#Cc3cccc(F)c3)ccc2S(=O)(=O)N([C@@H](C)CO)C[C@@H]1C	inactive	inactive	inactive
CC(C)NC(=O)Nc1ccc2c(c1)CC(=O)N([C@H](C)CO)C[C@@H](C)[C@@H](CN(C)Cc1ccc(-c3ccccc3)cc1)O2	inactive	active	inactive
c1cncc(OCc2nnn3c2CNCCC3)c1	inactive	inactive	inactive
O=C(C[C@@H]1C[C@@H]2c3cc(NS(=O)(=O)c4ccc(F)cc4)ccc3O[C@@H]2[C@@H](CO)O1)NCCc1ccccc1	inactive	inactive	inactive
CN(C)CCCN1C(=O)[C@@]2(Cc3ccccc31)c1ccccc1C(=O)N(Cc1ccccc1)[C@H]2c1ccc(CO)cc1	inactive	inactive	inactive
C[C@@H]1CN([C@@H](C)CO)C(=O)Cc2cc(NS(=O)(=O)c3cccs3)ccc2O[C@@H]1CN(C)CC1CC1	inactive	inactive	inactive
C[C@H](CO)N1C[C@H](C)[C@H](CN(C)C(=O)CCC(F)(F)F)OCCCC[C@H](C)Oc2ccc(NS(=O)(=O)c3ccccc3)cc2C1=O	inactive	inactive	inactive
CC(C)c1cn(CC[C@H]2CC[C@H](N)[C@@H](CO)O2)nn1	inactive	inactive	inactive
C[C@H](N)C12CC3CC(CC(C3)C1)C2	inactive	inactive	inactive
COc1ccc(S(=O)(=O)N(C)C[C@@H]2OCCCC[C@H](C)Oc3ccc(NC(=O)c4ccccc4)cc3C(=O)N([C@H](C)CO)C[C@H]2C)cc1	inactive	inactive	inactive
COc1ccc(S(=O)(=O)Nc2ccc3c(c2)C(=O)N([C@H](C)CO)C[C@@H](C)[C@@H](CN(C)Cc2ccc(C(=O)O)cc2)OCCCC[C@H](C)O3)cc1	inactive	inactive	inactive
Cc1noc(C)c1S(=O)(=O)Nc1ccc2c(c1)C(=O)N([C@@H](C)CO)C[C@H](C)[C@H](CN(C)C(=O)Nc1cccc3ccccc13)OCCCC[C@H](C)O2	inactive	inactive	inactive
CC1OC(Oc2c(-c3ccc(O)c(O)c3)oc3cc(O)cc(O)c3c2=O)C(O)C(O)C1O (configuration not stated)	inactive	inactive	inactive
Cc1ccc(S(=O)(=O)Nc2ccc3c(c2)C(=O)N([C@H](C)CO)C[C@H](C)[C@H](CN(C)S(C)(=O)=O)O3)cc1	inactive	inactive	inactive
CCCN1C[C@H](C)[C@@H](O)[C@](C)(O)[C@@H](CC)OC(=O)[C@H](C)[C@@H](O[C@H]2C[C@@](C)(OC)[C@@H](O)[C@H](C)O2)[C@H](C)[C@@H](O[C@@H]2O[C@H](C)C[C@H](N(C)C)[C@H]2O)[C@](C)(O)C[C@H]1C	inactive	inactive	active
C[C@@H]1CN([C@@H](C)CO)C(=O)Cc2cc(NC(=O)c3ccncc3)ccc2O[C@H]1CN(C)Cc1ccc2c(c1)OCO2	inactive	inactive	inactive
O=C(CCCCCNC(=O)OCCCCO[C@H]1C[C@@H](c2coc3ccccc3c2=O)C=C(C(=O)N2CCOCC2)O1)NO	inactive	inactive	inactive
C[C@H](CO)N1C[C@H](C)[C@H](CN(C)C(=O)Nc2ccc3c(c2)OCO3)OCCCC[C@H](C)Oc2ccc(NS(=O)(=O)c3ccc(F)cc3)cc2C1=O	inactive	inactive	inactive
C[C@@H]1CCCCO[C@H](CN(C)C(=O)Nc2cccc3ccccc23)[C@@H](C)CN([C@@H](C)CO)C(=O)c2cc(NC(=O)CCCN(C)C)ccc2O1	inactive	inactive	inactive
C[C@@H]1CN([C@H](C)CO)C(=O)c2cccc(NC(=O)Nc3ccccc3)c2O[C@@H]1CN(C)Cc1ccc(Cl)c(Cl)c1	inactive	inactive	inactive
CCc1cn([C@H]2C[C@H](O)[C@@H](CO)O2)c(=O)[nH]c1=O	inactive	inactive	inactive
COCCNC(=O)C[C@H]1CC[C@@H]2[C@@H](COc3ccc(NC(=O)Nc4cccc(F)c4)cc3C(=O)N2C)O1	inactive	inactive	inactive
CC(C)NC(=O)Nc1ccc2c(c1)CC(=O)N([C@H](C)CO)C[C@@H](C)[C@@H](CN(C)Cc1ccc(C(=O)O)cc1)O2	inactive	inactive	inactive
